Source: patent US20220023439A1, “ACTIVATABLE ANTI-CD166 ANTIBODIES AND METHODS OF USE THEREOF” (priority 2018, published 2022)

Experiment: Phase 1/2 study in human subjects: adverse events, DLT and MTD (NCI CTCAE v4.03)
Format: in vivo
[1] = All dosages (0.25-10 mg/kg), n=71, Table 10
[2] = of 18 patients with a treatment delay

B1: Combination 55 (conjugate)
heavy: QITLKESGPTLVKPTQTLTLTCTFSGFSLSTYGMGVGWIRQPPGKALEWLANIWWSEDKHYSPSLKSRLTITKDTSKNQVVLTITNVDPVDTATYYCVQIDYGNDYAFTYWGQGTLVTVSS[skipping human IgG1 constant region]
light: QGQSGQGLCHPAVLSAWESCSSGGGSSGGSAVGLLAPPGGLSGRSDNHGGSDIVMTQSPLSLPVTPGEPASISCRSSKSLLHSNGITYLYWYLQKPGQSPQLLIYQMSNLASGVPDRFSGSGSGTDFTLKISRVEAEDVGVYYCAQNLELPYTFGQGTKLEIKRTVAAPSVFIFPPSDEQLKSGTASVVCLLNNFYPREAKVQWKVDNALQSGNSQESVTEQDSKDSTYSLSSTLTLSKADYEKHKVYACEVTHQGLSSPVTKSFNRGEC
modifications: DM4 via SPDB linker
- Grade 3-4 TRAEs, Nervous System Disorders (% of subjects observed) (6-7 mg/kg, n=18, Table 11A): (11.1%)
- Grade 3-4 TRAEs, Nervous System Disorders (no. of subjects) (6-7 mg/kg, n=18, Table 11A): 2
- Total Grade 3-4 TRAEs (% of subjects observed) (6-7 mg/kg, n=18, Table 11A): (22.2%)
- Total Grade 3-4 TRAEs (no. of subjects) (6-7 mg/kg, n=18, Table 11A): 4
- Grade 3-4 TRAE Anemia (% of subjects observed) (6-7 mg/kg, n=18, Table 11B): (6%)
- Grade 3-4 TRAE Anemia (no. of subjects) (6-7 mg/kg, n=18, Table 11B): 1
- Grade 3-4 TRAE Fatigue (no. of subjects) (6-7 mg/kg, n=18, Table 11B): 0
- Grade 3-4 TRAE HN, hyponatremia (% of subjects observed) (6-7 mg/kg, n=18, Table 11B): (11%)
- Grade 3-4 TRAE HN, hyponatremia (no. of subjects) (6-7 mg/kg, n=18, Table 11B): 2
- Grade 3-4 TRAE Increased ALT (no. of subjects) (6-7 mg/kg, n=18, Table 11B): 0
- Grade 3-4 TRAE Increased AST (no. of subjects) (6-7 mg/kg, n=18, Table 11B): 0
- Grade 3-4 TRAE Keratitis (no. of subjects) (6-7 mg/kg, n=18, Table 11B): 0
- Grade 3-4 TRAE Nausea (% of subjects observed) (6-7 mg/kg, n=18, Table 11B): (6%)
- Grade 3-4 TRAE Nausea (no. of subjects) (6-7 mg/kg, n=18, Table 11B): 1
- Grade 3-4 TRAE PSN, Peripheral sensory neuropathy (% of subjects observed) (6-7 mg/kg, n=18, Table 11B): (6%)
- Grade 3-4 TRAE PSN, Peripheral sensory neuropathy (no. of subjects) (6-7 mg/kg, n=18, Table 11B): 1
- Grade 3-4 TRAE Vomiting (% of subjects observed) (6-7 mg/kg, n=18, Table 11B): (6%)
- Grade 3-4 TRAE Vomiting (no. of subjects) (6-7 mg/kg, n=18, Table 11B): 1
- Grade 3-4 TRAEs, Eye Disorders (% of subjects observed) (8-9 mg/kg, n=23, Table 11A): (23.8%)
- Grade 3-4 TRAEs, Eye Disorders (no. of subjects) (8-9 mg/kg, n=23, Table 11A): 5
- Grade 3-4 TRAEs, Gastrointestinal Disorders (% of subjects observed) (8-9 mg/kg, n=23, Table 11A): (9.5%)
- Grade 3-4 TRAEs, Gastrointestinal Disorders (no. of subjects) (8-9 mg/kg, n=23, Table 11A): 2
- Grade 3-4 TRAEs, Liver Function Tests (% of subjects observed) (8-9 mg/kg, n=23, Table 11A): (4.8%)
- Grade 3-4 TRAEs, Liver Function Tests (no. of subjects) (8-9 mg/kg, n=23, Table 11A): 1
- Grade 3-4 TRAEs, Metabolism & Nutrition Disorders (% of subjects observed) (8-9 mg/kg, n=23, Table 11A): (9.5%)
- Grade 3-4 TRAEs, Metabolism & Nutrition Disorders (no. of subjects) (8-9 mg/kg, n=23, Table 11A): 2
- Grade 3-4 TRAEs, Nervous System Disorders (no. of subjects) (8-9 mg/kg, n=23, Table 11A): 0
- Total Grade 3-4 TRAEs (% of subjects observed) (8-9 mg/kg, n=23, Table 11A): (52.4%)
- Total Grade 3-4 TRAEs (no. of subjects) (8-9 mg/kg, n=23, Table 11A): 11
- Grade 3-4 TRAE Anemia (no. of subjects) (8-9 mg/kg, n=23, Table 11B): 0
- Grade 3-4 TRAE Fatigue (no. of subjects) (8-9 mg/kg, n=23, Table 11B): 0
- Grade 3-4 TRAE HN, hyponatremia (% of subjects observed) (8-9 mg/kg, n=23, Table 11B): (4%)
- Grade 3-4 TRAE HN, hyponatremia (no. of subjects) (8-9 mg/kg, n=23, Table 11B): 1
- Grade 3-4 TRAE Increased ALT (% of subjects observed) (8-9 mg/kg, n=23, Table 11B): (4%)
- Grade 3-4 TRAE Increased ALT (no. of subjects) (8-9 mg/kg, n=23, Table 11B): 1
- Grade 3-4 TRAE Increased AST (% of subjects observed) (8-9 mg/kg, n=23, Table 11B): (4%)
- Grade 3-4 TRAE Increased AST (no. of subjects) (8-9 mg/kg, n=23, Table 11B): 1
- Grade 3-4 TRAE Keratitis (% of subjects observed) (8-9 mg/kg, n=23, Table 11B): (17%)
- Grade 3-4 TRAE Keratitis (no. of subjects) (8-9 mg/kg, n=23, Table 11B): 4
- Grade 3-4 TRAE Nausea (% of subjects observed) (8-9 mg/kg, n=23, Table 11B): (9%)
- Grade 3-4 TRAE Nausea (no. of subjects) (8-9 mg/kg, n=23, Table 11B): 2
- Grade 3-4 TRAE PSN, Peripheral sensory neuropathy (no. of subjects) (8-9 mg/kg, n=23, Table 11B): 0
- Grade 3-4 TRAE Vomiting (% of subjects observed) (8-9 mg/kg, n=23, Table 11B): (4%)
- Grade 3-4 TRAE Vomiting (no. of subjects) (8-9 mg/kg, n=23, Table 11B): 1
- Grade 3-4 TRAEs, Eye Disorders (no. of subjects) (<4 mg/kg, n=10, Table 11A): 0
- Grade 3-4 TRAEs, Gastrointestinal Disorders (no. of subjects) (<4 mg/kg, n=10, Table 11A): 0
- Grade 3-4 TRAEs, Liver Function Tests (no. of subjects) (<4 mg/kg, n=10, Table 11A): 0
- Grade 3-4 TRAEs, Metabolism & Nutrition Disorders (no. of subjects) (<4 mg/kg, n=10, Table 11A): 0
- Grade 3-4 TRAEs, Nervous System Disorders (no. of subjects) (<4 mg/kg, n=10, Table 11A): 0
- Total Grade 3-4 TRAEs (no. of subjects) (<4 mg/kg, n=10, Table 11A): 0
- Grade 3-4 TRAE Anemia (no. of subjects) (<4 mg/kg, n=10, Table 11B): 0
- Grade 3-4 TRAE Fatigue (no. of subjects) (<4 mg/kg, n=10, Table 11B): 0
- Grade 3-4 TRAE HN, hyponatremia (no. of subjects) (<4 mg/kg, n=10, Table 11B): 0
- Grade 3-4 TRAE Increased ALT (no. of subjects) (<4 mg/kg, n=10, Table 11B): 0
- Grade 3-4 TRAE Increased AST (no. of subjects) (<4 mg/kg, n=10, Table 11B): 0
- Grade 3-4 TRAE Keratitis (no. of subjects) (<4 mg/kg, n=10, Table 11B): 0
- Grade 3-4 TRAE Nausea (no. of subjects) (<4 mg/kg, n=10, Table 11B): 0
- Grade 3-4 TRAE PSN, Peripheral sensory neuropathy (no. of subjects) (<4 mg/kg, n=10, Table 11B): 0
- Grade 3-4 TRAE Vomiting (no. of subjects) (<4 mg/kg, n=10, Table 11B): 0
- Grade 3-4 TRAE Anemia (% of subjects observed) (All Cohorts, n=78, Table 11B): (3%)
- Grade 3-4 TRAE Anemia (no. of subjects) (All Cohorts, n=78, Table 11B): 2
- Grade 3-4 TRAE Fatigue (% of subjects observed) (All Cohorts, n=78, Table 11B): (3%)
- Grade 3-4 TRAE Fatigue (no. of subjects) (All Cohorts, n=78, Table 11B): 2
- Grade 3-4 TRAE HN, hyponatremia (% of subjects observed) (All Cohorts, n=78, Table 11B): (4%)
- Grade 3-4 TRAE HN, hyponatremia (no. of subjects) (All Cohorts, n=78, Table 11B): 3
- Grade 3-4 TRAE Increased ALT (% of subjects observed) (All Cohorts, n=78, Table 11B): (4%)
- Grade 3-4 TRAE Increased ALT (no. of subjects) (All Cohorts, n=78, Table 11B): 3
- Grade 3-4 TRAE Increased AST (% of subjects observed) (All Cohorts, n=78, Table 11B): (5%)
- Grade 3-4 TRAE Increased AST (no. of subjects) (All Cohorts, n=78, Table 11B): 4
- Grade 3-4 TRAE Keratitis (% of subjects observed) (All Cohorts, n=78, Table 11B): (8%)
- Grade 3-4 TRAE Keratitis (no. of subjects) (All Cohorts, n=78, Table 11B): 6
- Grade 3-4 TRAE Nausea (% of subjects observed) (All Cohorts, n=78, Table 11B): (5%)
- Grade 3-4 TRAE Nausea (no. of subjects) (All Cohorts, n=78, Table 11B): 4
- Grade 3-4 TRAE PSN, Peripheral sensory neuropathy (% of subjects observed) (All Cohorts, n=78, Table 11B): (3%)
- Grade 3-4 TRAE PSN, Peripheral sensory neuropathy (no. of subjects) (All Cohorts, n=78, Table 11B): 2
- Grade 3-4 TRAE Vomiting (% of subjects observed) (All Cohorts, n=78, Table 11B): (3%)
- Grade 3-4 TRAE Vomiting (no. of subjects) (All Cohorts, n=78, Table 11B): 2
- Subjects with Infusion Reactions Grade 1-2 [1]: 13
- Subjects with Infusion Reactions Grade 3-4 [1]: 1 (1%)
- Subjects with Ocular Toxicities Grade 1-2 [1]: 20
- Subjects with Ocular Toxicities Grade 3-4 [1]: 6
- Subjects with Treatment-Related Adverse Events Grade 1-2 [1]: 42
- Subjects with Treatment-Related Adverse Events Grade 3-4 [1]: 17
- Subjects with Infusion Reactions Grade 1-2 (% of subjects) (All dosages, n=71, Table 10): 18%
- Subjects with Infusion Reactions Grade 3-4 (% of subjects) (All dosages, n=71, Table 10): 1 (1%)
- Subjects with Ocular Toxicities Grade 1-2 (% of subjects) (All dosages, n=71, Table 10): 28%
- Subjects with Ocular Toxicities Grade 3-4 (% of subjects) (All dosages, n=71, Table 10): 8%
- Subjects with Treatment-Related Adverse Events Grade 1-2 (% of subjects) (All dosages, n=71, Table 10): 59%
- Subjects with Treatment-Related Adverse Events Grade 3-4 (% of subjects) (All dosages, n=71, Table 10): 24%
- Patients with at least 1 treatment delay (all cohorts): 18 patients
- Patients with serious AEs (Grades 3-4) (all cohorts): 27 patients
- Patients with serious AEs (Grades 3-4), percent (all cohorts): 35%
- TRAE of any grade: blurred vision (all cohorts): 17%
- TRAE of any grade: decreased appetite (all cohorts): 23%
- TRAE of any grade: diarrhea (all cohorts): 19%
- TRAE of any grade: fatigue (all cohorts): 24%
- TRAE of any grade: increased aspartate aminotransferase (all cohorts): 13%
- TRAE of any grade: infusion-related reaction (all cohorts): 18%
- TRAE of any grade: keratitis (all cohorts): 19%
- TRAE of any grade: nausea (all cohorts): 32%
- TRAE of any grade: vomiting (all cohorts): 15%
- Patients with treatment-related AEs (TRAEs) (all cohorts, any grade): 69 patients
- Patients with treatment-related AEs (TRAEs), percent (all cohorts, any grade): 89%
- Maximum tolerated dose (MTD) (human subjects, every 3 weeks, dose based on adjusted ideal body weight, not reached): > 10 mg/kg
- Safety profile (human subjects, up to 10 mg/kg): favorable safety profile
- Manageability of events (improvement or resolution following dose delay, discontinuation, and/or dose reduction): medically manageable
- Treatment delays because of ocular toxicity, percent [2]: 67%
- Treatment delays because of peripheral neuropathy, percent [2]: 22%
- Discontinuation because of TRAE blurred vision (of 78 patients): 1 patient
- Discontinuation because of TRAE keratitis (of 78 patients): 6 patients
- Discontinuation because of TRAE nausea (of 78 patients): 1 patient
- Discontinuation because of TRAE peripheral neuropathy (of 78 patients): 1 patient
- Grade 4 TRAE gamma-glutamyl transferase increased (patients) (of 78 patients): 1
- Grade 4 TRAE keratitis (patients) (of 78 patients): 1
- Patients with Grade 4 TRAEs (of 78 patients): 2 patients
- Patients with Grade 4 TRAEs, percent (of 78 patients): 2.6%
- Patients with treatment-related adverse events that led to treatment discontinuation (of 78 patients, given cut-off): 9 patients
- Patients with treatment-related adverse events that led to treatment discontinuation, percent (of 78 patients, given cut-off): 12%
- Patients with Grade ≥2 ocular toxicity resulting in dose delay or discontinuation (of the 7 patients in Table 8B with unconfirmed partial response): 5 patients
